From the antibiotic and cytotoxicity screens of Wong et al. (2023)
This is one part of the list.

Columns and labels:
[1] = test system: HSkMC (human skeletal muscle cells); test: cytotoxicity call (relative viability < 0.9); conditions: 10 µM
[2] = test system: HepG2; test: cytotoxicity call (relative viability < 0.9); conditions: 10 µM
[3] = test system: S. aureus RN4220; test: growth inhibition call (relative growth <= 0.2); conditions: 50 µM

Compound	cytotoxicity call [1]	cytotoxicity call [2]	growth inhibition call [3]
C[C@@H]1CCCCO[C@@H](CN(C)S(=O)(=O)c2cn(C)cn2)[C@@H](C)CN([C@H](C)CO)C(=O)c2cc(N(C)C)ccc2O1	inactive	inactive	inactive
COc1ccc(S(=O)(=O)N(C)C[C@H]2Oc3c(NC(=O)C4CC4)cccc3C(=O)N([C@@H](C)CO)C[C@@H]2C)cc1	inactive	inactive	inactive
Cn1c(=O)c2[nH]c(NCCN3CCOCC3)nc2n(C)c1=O	inactive	inactive	inactive
C[C@@H]1CCCCO[C@H](CN(C)Cc2ccccc2)[C@H](C)CN([C@@H](C)CO)C(=O)c2cc(NS(=O)(=O)c3ccccc3)ccc2O1	inactive	inactive	inactive
CCS(=O)(=O)N1C[C@]2(C1)CN([C@H](CO)c1[nH]c3cc(ccc3c12)OC)S(=O)(=O)c1ccc(cc1)C	inactive	inactive	inactive
COc1ccc(NC(=O)N(C)C[C@@H]2OCCCC[C@@H](C)Oc3ccc(NC(=O)Nc4ccc(C(F)(F)F)cc4)cc3C(=O)N([C@@H](C)CO)C[C@@H]2C)cc1	inactive	inactive	inactive
O=c1cc(-c2ccc(O)cc2)oc2cc(O)ccc12	inactive	inactive	inactive
C[C@H](CO)N1C[C@H](C)[C@H](CN(C)Cc2cccc(F)c2)OCc2ccccc2-c2c(n(C)c3ccccc23)C1=O	inactive	active	inactive
C/C=C/c1ccc2c(c1)O[C@@H](CN(C)Cc1ccc(C(=O)O)cc1)[C@@H](C)CN([C@@H](C)CO)S2(=O)=O	inactive	inactive	inactive
COc1ccc(C2=CCCC2)cc1	inactive	inactive	inactive
